Paper PMC4336329 (PLoS ONE, 2015)
Hit rate of the full screen: of about 310,000 compounds, about 2,200 (0.71%) showed an effect of 50% or more. The effect is printed as a negative number. The list shows a part of the results.

target: human ether-à-go-go-related gene (hERG) potassium channel (human, UniProt Q12809); assay: primary screen, population patch clamp on CHO cells stably expressing hERG
Sequence (Q12809 whole entry, looked up): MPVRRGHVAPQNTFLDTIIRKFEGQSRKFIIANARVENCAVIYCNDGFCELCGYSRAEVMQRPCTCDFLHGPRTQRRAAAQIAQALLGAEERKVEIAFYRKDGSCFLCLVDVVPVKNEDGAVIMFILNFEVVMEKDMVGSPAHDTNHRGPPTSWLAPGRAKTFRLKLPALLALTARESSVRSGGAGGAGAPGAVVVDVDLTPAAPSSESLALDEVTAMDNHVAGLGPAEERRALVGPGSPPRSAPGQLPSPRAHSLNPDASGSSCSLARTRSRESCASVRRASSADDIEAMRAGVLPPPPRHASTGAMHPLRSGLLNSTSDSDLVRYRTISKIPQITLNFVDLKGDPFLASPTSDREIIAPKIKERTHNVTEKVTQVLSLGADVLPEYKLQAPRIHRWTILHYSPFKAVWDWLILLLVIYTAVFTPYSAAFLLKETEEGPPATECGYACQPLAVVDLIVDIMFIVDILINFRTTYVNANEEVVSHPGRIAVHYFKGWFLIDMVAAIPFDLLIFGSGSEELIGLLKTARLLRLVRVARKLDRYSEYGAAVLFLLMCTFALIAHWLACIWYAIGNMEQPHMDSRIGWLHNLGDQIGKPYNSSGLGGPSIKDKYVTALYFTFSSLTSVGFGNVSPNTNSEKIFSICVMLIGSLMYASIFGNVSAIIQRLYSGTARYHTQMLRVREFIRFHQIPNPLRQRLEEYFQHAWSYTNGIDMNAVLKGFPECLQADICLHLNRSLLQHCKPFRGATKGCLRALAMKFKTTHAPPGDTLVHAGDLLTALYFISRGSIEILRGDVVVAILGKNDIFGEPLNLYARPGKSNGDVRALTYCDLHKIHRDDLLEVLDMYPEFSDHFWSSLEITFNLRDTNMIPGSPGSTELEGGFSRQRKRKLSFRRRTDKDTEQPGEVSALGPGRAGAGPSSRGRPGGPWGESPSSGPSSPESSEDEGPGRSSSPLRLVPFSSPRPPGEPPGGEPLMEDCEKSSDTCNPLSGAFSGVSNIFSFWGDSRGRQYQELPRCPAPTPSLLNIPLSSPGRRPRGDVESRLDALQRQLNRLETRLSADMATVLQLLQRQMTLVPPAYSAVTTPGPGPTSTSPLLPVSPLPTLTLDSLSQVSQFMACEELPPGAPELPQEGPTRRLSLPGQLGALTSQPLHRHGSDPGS

Structure (SMILES)	hERG current change (%, negative = inhibition) at 1uM
CCn1c(SC)nc(O)c(C(c2ccc(OC)c(O)c2)c2c(O)nc(SC)n(CC)c2=O)c1=O	9.01%
CC(C)[C@H](NC(=O)N1CC(=O)Nc2ccccc21)C(=O)N[C@H](Cc1ccccc1)C(=O)O	8.2%
CSc1ccc(C(c2c(C)[nH][nH]c2=O)c2c(C)[nH][nH]c2=O)cc1	16.7%
Cc1cccc(C)c1OCC(=O)N1CC2(C)CC1CC(C)(C)C2 (stereo not drawn)	9.34%
O=C1c2ccccc2C(=O)N1CCCn1c(=O)oc2ccccc21	14.5%
CN(C)S(=O)(=O)c1cccc(C(=O)OCC(=O)c2ccc3c(c2)NC(=O)CO3)c1	-6.65%
CC(C)(NO)/C(=N\O)c1ccc(Cl)cc1.Cl	5.61%
COc1ccc(C(=O)N(C)Cc2cnn(Cc3ccccc3)c2)cc1S(=O)(=O)N1CCOCC1	0.372%
CCOc1ccc(C(=O)CCN2CCCCCC2)cc1.Cl	-11.1%
COc1ccc(NC(=O)CN(C)CC(=O)Nc2ccc(C)c(S(=O)(=O)N3CCCCC3)c2)cc1	4.66%
CC1(C)CC(=O)C(C=NCCN2CCN(C(=O)Cc3ccc(F)cc3)CC2)=C(O)C1	-6.96%
COc1ccc(CC(=O)NCc2csc(-c3cccs3)n2)cc1OC	7.04%
COCCCNC(=O)CSC1=Nc2ccccc2C2=NC(CC(=O)NCc3ccccc3)C(=O)N12 (stereo not drawn)	11.4%
CC(=O)c1c(C)n(-c2ccccc2)c2ccc(O)cc12	16%
CC1CCN(C(=O)Cn2nc(C(F)(F)F)c3c2CCCC3)CC1	0.104%
Cc1cnc2cc(Cl)c(Cl)cc2n1	6.84%
COc1ccc(OCCOc2ccc(C)nc2[N+](=O)[O-])cc1	12.1%
O=C(NCc1n[nH]c(=S)n1-c1ccc(Cl)c(Cl)c1)c1cccs1	11.5%
CCS(=O)(=O)c1ccc(O)c(NC(=O)COc2ccc(OC)cc2)c1	13.5%
O=C(CC1C(=O)NCCN1CC(c1ccccc1)c1ccccc1)NCCc1cn[nH]c1 (stereo not drawn)	15.2%
Cc1ccc(SCCNS(C)(=O)=O)cc1	9.33%
COc1ccc(C(=O)Nc2nc(-c3cccs3)c(NC(C)=O)s2)cc1	15.8%

Structure (SMILES)	hERG current change (%, negative = inhibition) at 1uM
CC(C)c1ccc(N(CC(=O)NCc2ccco2)C(=O)CCC(=O)Nc2nccs2)cc1	2.23%
O=C(c1ccco1)N1CCN(C(=O)c2cc3c(=O)oc4ccccc4c3s2)CC1	1.58%
O=C1CN(C(=S)NC(=O)c2ccc(-c3ccccc3)cc2)CCN1	4.58%
CCc1ccccc1N1C(=O)/C(=C/c2ccc(N3CCN(C)CC3)o2)C(=O)NC1=S	11.8%
Nc1nc2n(n1)C(c1cccc(Br)c1)CC(c1ccc(F)cc1)N2 (stereo not drawn)	-23.8%
O=c1c2ccccc2sn1-c1ccc(S(=O)(=O)N2CCCCC2)cc1	14.3%
CC(=O)Nc1cccc(NC(=O)CSc2nnc(Cc3cccn3C)n2CCc2ccccc2)c1	-9.05%
COc1ccccc1CNC(=O)Cn1cccc1	4.51%
Cc1ccnc(NS(=O)(=O)c2ccc(-n3cccn3)cc2)c1	14.8%
COCCOC(=O)c1c(N)n(Cc2ccccc2)c2nc3ccccc3nc12	-12.5%
Cl.OC(COCCC12CC3CC(CC(C3)C1)C2)CN1CCCC1 (stereo not drawn)	-5%
O=C(O)CCCCCCCCCCCNC(=O)NC12CC3CC(CC(C3)C1)C2	15.9%
COc1ccc(-n2c(/C=C/c3cccc(F)c3)nc3ccccc3c2=O)c(OC)c1	16.6%
Fc1cccc(NC(=S)Nc2cccc3ccccc23)c1	-5.02%
O=C(O)c1ccccc1S(=O)(=O)NCC(O)COC1CCCCC1 (stereo not drawn)	1.32%
COc1ccccc1C(=O)NC(=O)COC(=O)CN1C(=O)NC(C)(C)C1=O	28.2%
NC(=O)C1CCN(CC(=O)Nc2cccc(C(=O)Nc3cccc(C(F)(F)F)c3)c2)CC1	5.56%
COc1ccc(/C=C/C(=O)N2CC(C)OC(C)C2)cc1OC (stereo not drawn)	8.4%
COc1cc2c3cc1Oc1cc(ccc1O)C[C@@H]1c4c(cc(OC)c(O)c4Oc4ccc(cc4)C[C@H]3N(C)CC2)CCN1C	-7.98%
COc1ccc(CCNC(=O)Cn2nc(C)c3c(C)n(-c4ccccc4)nc3c2=O)c(OC)c1	15.3%
Cc1ccc(N(CCC#N)C(=O)COC(=O)c2ccccn2)cc1	12.6%
Cc1ccc(C(=O)N2CCCC(Nc3ccc(C(C)C)cc3)C2)cn1 (stereo not drawn)	15.5%

Structure (SMILES)	hERG current change (%, negative = inhibition) at 1uM
CCC(=O)Nc1ccccc1C(=O)OCc1ccc(C(=O)c2ccccc2)cc1	-10.1%
CNC(=O)C1CC(=O)N(Cc2ccc3c(c2)OCO3)C(=Nc2ccc(F)cc2)S1 (stereo not drawn)	-4.85%
Cc1ccc(-c2ccc(=O)n(CCC(=O)N3CCN(Cc4ccccc4)CC3)n2)cc1	-14.4%
CC(C)(C)C(=O)NC(=S)NNC(=O)c1ccc(Cl)cc1Cl	14.6%
CCCCCCNC(=O)N1C/C=C\C(c2ccc(OC)cc2)N(Cc2ccc(F)cc2)C(=O)C1 (stereo not drawn)	6.54%
C#CCSc1nnc(-c2ccc([N+](=O)[O-])cc2)o1	11.7%
Cc1ccc(/C=C/C(=O)OC(C)C(=O)Nc2ncc(Cl)cc2Cl)o1 (stereo not drawn)	15.3%
O=C(Cc1ccccc1)NNC(=O)c1ccc(NC(=O)c2ccccc2)cc1	12.6%
O=C(C1COc2ccccc2O1)N1CCN(S(=O)(=O)c2cc(F)ccc2F)CC1 (stereo not drawn)	-0.683%
C/C(=N/O)c1c(O)c(C)c(-c2ccccc2)n(-c2ccccc2)c1=O	11%
COc1ccc(COc2ccsc2C(=O)Nc2ccc(Cl)c(Cl)c2)cc1	13.6%
O=C(CCSc1ccc(Br)cc1)c1ccc(O)cc1	12.2%
CCOc1ccc(NC(=O)CC2CC(C)(C)OC2=O)cc1 (stereo not drawn)	0.751%
CCCC(C)NC(=O)CSc1nc2ccc(C)cc2[nH]1 (stereo not drawn)	10%
Clc1ccc(-c2csc(N3CCc4ccccc4C3)n2)cc1	14.1%
CCOc1ccc(NC(=O)COC(=O)c2cc(S(=O)(=O)N3CCCC3)ccc2C)cc1	-1.19%
COc1ccccc1N1C(=O)NC(=O)/C(=C\c2cnn(-c3ccccc3)c2)C1=O	2.18%
Cc1ccc(CCN2C(=O)CCC2(C)C(=O)NC2CCCC2)cc1 (stereo not drawn)	6.06%
COc1cc(/C=N/N2CCN(c3ccccc3OC)CC2)ccc1O	7.22%
CCCCCCn1c(=O)c(C(=O)Nc2ncccc2C)c(O)c2ccccc21	9.79%
COc1ccc(N2CCN(C(=S)NC(=O)c3cccs3)CC2)c([N+](=O)[O-])c1	-3.68%
CCc1nnc(NC(=O)Cn2nnc(-c3ccccc3F)n2)s1	13%

Structure (SMILES)	hERG current change (%, negative = inhibition) at 1uM
CCOc1ccc(NC(=O)CN(C)C(=O)Cc2c(C)nc3ccccc3c2C)cc1OCC	-14.2%
Cn1c(CNC(=O)Nc2ccccc2)nnc1SCc1ccccc1	0.509%
N#CC1=C(N)Nc2nc3ccccc3n2C1c1ccc(Cl)cc1 (stereo not drawn)	6.63%
COc1ccc(-c2nnc(-c3cc4ccccc4oc3=O)o2)cc1	13.7%
Cc1ccc(S(=O)(=O)N(CC2CO2)c2ccccc2[N+](=O)[O-])cc1 (stereo not drawn)	10.5%
Cn1c(SCC(=O)NCc2ccco2)nnc1-c1c[nH]c2ccccc12	1.37%
O=C(c1cccc(OC2CCN(Cc3cc(F)cc(F)c3)CC2)c1)N1CCCC1	3.73%
CC(=O)[C@H]1CC[C@H]2[C@@H]3C=CC4=CC(=O)CC[C@@]4(C)[C@@H]3CC[C@]12C	10.2%
CCc1cccc2c(C(=O)COC(=O)c3ccccc3)c[nH]c12	8.88%
O=[N+]([O-])c1ccc(CSc2nnc(-c3cnccn3)o2)cc1	10.1%
CCOc1ccccc1OCC(=O)OC(C)C(=O)Nc1ncc(Cl)cc1Cl (stereo not drawn)	9.83%
Cc1ccccc1C(=O)Nc1nnc(-c2ccncc2)o1	7.81%
O=S(=O)(c1ccc2c(c1)CCCC2)N1CCNCC1	12.5%
CC(C)NCC(O)c1ccc(O)c(O)c1.Cl (stereo not drawn)	14.2%
Cc1c(NC(=O)C(C)OC(=O)CNC(=O)c2ccc(C(C)(C)C)cc2)c(=O)n(-c2ccccc2)n1C (stereo not drawn)	11.7%
Cc1cc(C2C(C#N)=C(N)SC(N)=C2C#N)c(C)s1	11.3%
S=c1nc(-c2ccccc2)oc2c1CCCC2	5.57%
Cl.O=C(CN1CCCCC1)Nc1cccc2c1OCO2	12.1%
CNCCOc1ccc(Cl)c(Cl)c1.O=C(O)C(=O)O	10.2%
S=C(c1ccc(-c2ccccc2Cl)o1)N1CCCCC1	4.52%
CC(C)(C)N(Cc1ccccc1)C(=O)CSc1nc2ccccc2c(=O)[nH]1	4.8%
